Data from article PMC4336329 (PLoS ONE, 2015).
The campaign covered roughly 310,000 compounds. About 14,000 (4.5%) showed an effect of 50% or more. Effects have a minus sign here. The list shows a part of the results.

Each compound was assayed against human ether-à-go-go-related gene (hERG) potassium channel (human, UniProt Q12809) (assay: primary screen, population patch clamp on CHO cells stably expressing hERG).
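Note: peak tail current of the secondary pulse compared with the same well before compound.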

Sequence of human ether-à-go-go-related gene (hERG) potassium channel (Q12809 whole entry, looked up): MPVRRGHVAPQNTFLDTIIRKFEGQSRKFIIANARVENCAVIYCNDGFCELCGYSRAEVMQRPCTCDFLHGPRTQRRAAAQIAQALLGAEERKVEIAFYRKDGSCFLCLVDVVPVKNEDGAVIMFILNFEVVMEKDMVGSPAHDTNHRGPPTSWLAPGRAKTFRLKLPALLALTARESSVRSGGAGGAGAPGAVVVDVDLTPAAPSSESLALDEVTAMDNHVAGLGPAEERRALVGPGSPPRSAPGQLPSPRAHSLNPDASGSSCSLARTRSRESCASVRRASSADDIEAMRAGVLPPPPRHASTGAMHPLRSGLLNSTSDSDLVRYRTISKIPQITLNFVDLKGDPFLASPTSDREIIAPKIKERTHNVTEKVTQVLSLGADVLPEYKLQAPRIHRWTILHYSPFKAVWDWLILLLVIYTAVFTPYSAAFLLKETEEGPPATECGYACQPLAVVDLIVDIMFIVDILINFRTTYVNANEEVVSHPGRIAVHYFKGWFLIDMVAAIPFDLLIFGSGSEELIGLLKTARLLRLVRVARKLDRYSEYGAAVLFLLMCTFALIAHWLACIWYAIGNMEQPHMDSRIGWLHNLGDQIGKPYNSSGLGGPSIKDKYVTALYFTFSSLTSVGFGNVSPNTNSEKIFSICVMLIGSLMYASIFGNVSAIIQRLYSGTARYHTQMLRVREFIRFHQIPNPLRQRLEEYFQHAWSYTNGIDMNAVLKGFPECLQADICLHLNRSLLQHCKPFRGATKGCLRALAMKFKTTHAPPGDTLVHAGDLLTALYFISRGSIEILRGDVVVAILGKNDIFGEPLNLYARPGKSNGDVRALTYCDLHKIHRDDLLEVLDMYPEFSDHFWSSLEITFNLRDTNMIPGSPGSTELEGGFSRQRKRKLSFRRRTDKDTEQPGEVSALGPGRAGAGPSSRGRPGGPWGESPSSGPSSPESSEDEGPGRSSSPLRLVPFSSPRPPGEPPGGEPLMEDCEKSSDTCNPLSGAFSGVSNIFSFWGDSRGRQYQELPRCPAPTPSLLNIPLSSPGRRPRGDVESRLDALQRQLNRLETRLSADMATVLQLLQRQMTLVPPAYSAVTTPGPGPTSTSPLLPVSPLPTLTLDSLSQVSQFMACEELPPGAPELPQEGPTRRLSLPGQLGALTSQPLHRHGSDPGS

First: Cc1ccc(S(=O)(=O)NC(C)(C)CN2CCC(Cc3ccccc3)CC2)cc1.O=C(O)C(=O)O
Second: Cc1ccc(S(=O)(=O)N2CCN(C(=O)C3Cc4ccccc4CN3C(=O)c3ccco3)CC2)cc1 (stereo not shown)
The “hERG current change (%, negative = inhibition) at 10uM” value of the first is lower: -64.8% for the first, -7.36% for the second.

Compared with `Cc1ccc(CNC(=O)CCS(=O)(=O)c2ccc3c(c2)NC(=O)CS3)cc1`, `Cc1cccc(N(C)C(=O)CN(C)S(=O)(=O)c2ccc3c(c2)c(=O)n(C)c(=O)n3C)c1` is higher in “hERG current change (%, negative = inhibition) at 10uM” value: -9.45% for the first, 5.06% for the second.

First: Cc1ccnc(NC(c2cccnc2)c2ccc3cccnc3c2O)c1 (stereo not shown)
Second: CN(C)C(CNC(=S)Nc1ccc(Cl)cc1)c1cccnc1 (stereo not shown)
The “hERG current change (%, negative = inhibition) at 10uM” value of the first is lower: -22.5% for the first, 3.03% for the second.

Compared with `O=C(NC(=S)NCCN1CCOCC1)c1ccc(Cl)cc1`, `COc1ccc(Cl)cc1C(=O)NC(=S)Nc1ccccc1N1CCOCC1` is higher in “hERG current change (%, negative = inhibition) at 10uM” value: -13.2% for the first, 10.2% for the second.

Going from `O=C(CNC(=O)c1ccco1)Nc1ccc(N2CCCCCC2)cc1` to `CCc1cccc(CC)c1NC(=O)C1CCN(C(=O)c2ccco2)CC1`, the “hERG current change (%, negative = inhibition) at 10uM” value rises from -7.71% to 2.93%.

Going from `O=C(OCc1nnn(Cc2ccccc2)c1-c1c(COC(=O)c2ccccc2)nnn1Cc1ccccc1)c1ccccc1` to `O=C(CCc1ccccc1)NNC(=O)COc1ccc(Cl)cc1`, the “hERG current change (%, negative = inhibition) at 10uM” value rises from -2.74% to 25.5%.

Compared with `CN(Cc1ccccc1)c1nc2c(c(=O)[nH]c(=O)n2C)n1Cc1ccccc1Cl`, `CN(Cc1ccccc1)C(=O)Nc1ccccc1` is higher in “hERG current change (%, negative = inhibition) at 10uM” value: -21.3% for the first, 7.49% for the second.

Compared with `O=C(Cn1cnc2c(cnn2-c2ccc(Cl)cc2)c1=O)NCC1CCCO1` (stereo not shown), `O=C(CSCc1cc(=O)n2nc(C3CC3)sc2n1)Nc1ccc(F)cc1` is higher in “hERG current change (%, negative = inhibition) at 10uM” value: -5.12% for the first, 1.78% for the second.

First: COc1ccccc1NC(=O)N1CCN(c2ccnc3cc(Cl)ccc23)CC1
Second: CN(Cc1ccccc1)C(=O)c1[nH]cnc1C(=O)Nc1cccc(Cl)c1
The “hERG current change (%, negative = inhibition) at 10uM” value of the first is lower: -80.5% for the first, 11.9% for the second.

Going from `CCn1cc(C(=O)OCC(=O)OC2CC(C)CCC2C(C)C)c(=O)c2ccc(C)nc21` (stereo not shown) to `Cc1sc(NC(=O)C2C3CCC(C3)C2C(=O)O)c(C(N)=O)c1-c1ccc(C(C)(C)C)cc1` (stereo not shown), the “hERG current change (%, negative = inhibition) at 10uM” value rises from -51.8% to -24.3%.

First: CCc1ccc(C(=O)NC(CC(C)C)C(=O)O)cc1 (stereo not shown)
Second: CC(C)Oc1ccc(C(=O)NC2CCS(=O)(=O)C2)cc1 (stereo not shown)
The “hERG current change (%, negative = inhibition) at 10uM” value of the first is lower: -2.4% for the first, 18.8% for the second.

Going from `O=C1c2ccccc2C(=O)N1Cc1ccccc1F` to `N#Cc1ccc(-c2nc3ccccc3c(=O)n2O)cc1`, the “hERG current change (%, negative = inhibition) at 10uM” value rises from 13% to 16.6%.

Compared with `CCOC(=O)C1CCN(C(=O)NS(=O)(=O)c2ccc(C)cc2)CC1`, `Cc1ccc(S(=O)(=O)NC(C)C(=O)N2CCOCCOCCOCCOCC2)cc1` (stereo not shown) is lower in “hERG current change (%, negative = inhibition) at 10uM” value: 32.5% for the first, 7.04% for the second.

Going from `Cc1nc2ccccc2n1Cc1n[nH]c(=S)n1-c1ccc(Cl)cc1` to `Cc1ccc2nc(Nc3ccc(F)cc3)c3nncn3c2c1`, the “hERG current change (%, negative = inhibition) at 10uM” value falls from 17.6% to 12.8%.

First: CN(c1cccc(NC(=O)CSc2ccc(Cl)cc2)c1)S(C)(=O)=O
Second: CS(=O)(=O)N(CC(=O)Nc1cccc(Br)c1)Cc1ccccc1
The “hERG current change (%, negative = inhibition) at 10uM” value of the first is lower: -10.9% for the first, 1.84% for the second.

Compared with `O=C(NCC(=O)N(Cc1ccccc1)C(C(=O)NC1CCCC1)c1cccnc1)c1ccco1` (stereo not shown), `O=C(c1ccco1)N(Cc1ccccc1)c1cccc([N+](=O)[O-])c1` is lower in “hERG current change (%, negative = inhibition) at 10uM” value: 13.8% for the first, -38.3% for the second.

Compared with `CCCOP(=O)(OCCC)C(NC(=O)c1cc(OC)c(OC)c(OC)c1)c1ccccc1` (stereo not shown), `COc1ccc(CCN(C)C2CCCN(S(=O)(=O)c3ccccc3F)C2)cc1OC` (stereo not shown) is lower in “hERG current change (%, negative = inhibition) at 10uM” value: -0.336% for the first, -64.3% for the second.

Compared with `CC(=O)Nc1ccc(S(=O)(=O)NCCC(=O)OCc2nc(N)nc(Nc3ccccc3C)n2)cc1`, `Cc1ccc(C(=O)NCC(=O)OC(C)C(=O)Nc2ccc(N(C)C)cc2)cc1C` (stereo not shown) is lower in “hERG current change (%, negative = inhibition) at 10uM” value: 5.36% for the first, -4.22% for the second.

Going from `O=C(CN1CCCCC1)N1CCCc2ccccc21.O=C(O)C(=O)O` to `CCN(C(=O)CN1CCN(C)CC1)c1c(N)n(Cc2ccccc2)c(=O)[nH]c1=O`, the “hERG current change (%, negative = inhibition) at 10uM” value rises from 2.82% to 13.4%.

Compared with `Cc1sc2ncn(/N=C/c3ccco3)c(=O)c2c1C`, `Cc1cc2sc3ccccc3c(=O)c2c(C)c1O` is higher in “hERG current change (%, negative = inhibition) at 10uM” value: -2.43% for the first, 21.6% for the second.

First: CCCc1cc(=O)[nH]c(SCC(=O)Nc2sc(C(N)=O)c(C)c2C(=O)OCCOC)n1
Second: COC(=O)c1sc2nc3c(cc2c1N)COC(C)(C)C3
The “hERG current change (%, negative = inhibition) at 10uM” value of the first is lower: -23% for the first, -9.7% for the second.

First: CCOC(=O)N1CCN(Cc2nnc(-c3ccccc3Cl)o2)CC1.Cl
Second: Cc1ccc(S(=O)(=O)c2nc(-c3ccccc3Cl)oc2NCCCN2CCOCC2)cc1
The “hERG current change (%, negative = inhibition) at 10uM” value of the first is higher: 11.4% for the first, -49.8% for the second.

First: COc1ccc(OC)c(Cc2nnc(CCC(=O)N3CCCCCC3)o2)c1
Second: COc1ccc([C@@H](C)NC(=O)CCc2nnc(-c3cc(C)on3)o2)cc1
The “hERG current change (%, negative = inhibition) at 10uM” value of the first is higher: 7.7% for the first, -1.34% for the second.

First: CC1CN(C(=O)/C=C/c2ccc3c(c2)OCO3)CC(C)O1 (stereo not shown)
Second: COc1cc(OC)cc(C(=O)NCc2ccc3c(c2)OCO3)c1
The “hERG current change (%, negative = inhibition) at 10uM” value of the first is lower: -21% for the first, 0.0794% for the second.

Compared with `Cc1ccccc1-n1c(SCC(=O)O)nc2sc3c(c2c1=O)CCCC3`, `Cc1cccn2c(=O)c(/C=N/O)c(N3CCCC3)nc12` is lower in “hERG current change (%, negative = inhibition) at 10uM” value: 7.7% for the first, -14.3% for the second.

Going from `CCCNc1c(NS(=O)(=O)c2ccc(C)cc2C)c(=O)oc2ccccc12` to `Cc1ccc(S(=O)(=O)Nc2ccncc2)c(C)c1.Cl`, the “hERG current change (%, negative = inhibition) at 10uM” value rises from -52.2% to 12%.

Going from `CCOCCCNC(=O)CSc1nnc(-c2ccc(S(=O)(=O)N3CCCC3)cc2)n1C` to `Cc1oc(-c2cccc(Cl)c2)nc1CS(=O)(=O)CC(=O)NCCCN1CCOCC1`, the “hERG current change (%, negative = inhibition) at 10uM” value falls from 11.2% to 7.33%.

Compared with `COc1ccc(CN(C(=O)c2cc(=O)c3cc(C)cc(C)c3o2)C2CCS(=O)(=O)C2)cc1` (stereo not shown), `CN(C(=O)c1ccccc1)c1ccc(OCC(=O)NC2CCS(=O)(=O)C2)cc1` (stereo not shown) is higher in “hERG current change (%, negative = inhibition) at 10uM” value: -49.2% for the first, 14.5% for the second.

Going from `CC(Sc1nnnn1C)C(=O)Nc1ncc(Cl)cc1Cl` (stereo not shown) to `O=C(N/N=C/c1c[nH]c2ccccc12)c1ccn(Cc2ccc(Cl)cc2Cl)n1`, the “hERG current change (%, negative = inhibition) at 10uM” value rises from -8.87% to 12.2%.

First: Cc1cc(C)nc(SCCC(=O)N(C)C)n1
Second: CCC(C)Sc1nnc(CSc2nc3nc(C)cc(C)n3n2)o1 (stereo not shown)
The “hERG current change (%, negative = inhibition) at 10uM” value of the first is higher: 9.46% for the first, 3.48% for the second.

Compared with `COc1ccc(/C=N/OCC(=O)N=Nc2c(O)[nH]c3ccc(Br)cc23)cc1`, `COc1ccc(C2C=C(c3ccc(Br)cc3)Nc3nc(NS(C)(=O)=O)nn32)cc1` (stereo not shown) is lower in “hERG current change (%, negative = inhibition) at 10uM” value: 17.4% for the first, 4.71% for the second.

Going from `CCC(=O)NC(=S)Nc1cccc(NC(=O)c2ccccc2)c1` to `C=CCNC(=S)NNC(=O)c1ccc(=O)n(Cc2ccccc2)c1`, the “hERG current change (%, negative = inhibition) at 10uM” value rises from -1.7% to 25.8%.

Going from `Cl.OCCNCC1(O)C2CC3CC(C2)CC1C3` (stereo not shown) to `O=c1c(Cl)c(NCc2ccc(F)cc2Cl)cnn1C12CC3CC(CC(C3)C1)C2`, the “hERG current change (%, negative = inhibition) at 10uM” value rises from 12.6% to 16.3%.

First: COC(=O)c1ccccc1NC(=O)c1cc(-c2cccs2)on1
Second: Cc1ccccc1C(=O)N1CCC(C(=O)Nc2cccc(F)c2)CC1
The “hERG current change (%, negative = inhibition) at 10uM” value of the first is higher: -0.963% for the first, -3.49% for the second.

First: Fc1ccccc1C1c2cccn2CCN1C(=S)Nc1cccc(Br)c1 (stereo not shown)
Second: O=C(Nc1ccccc1)c1nn(-c2ccccc2)c(=O)cc1C(F)(F)F
The “hERG current change (%, negative = inhibition) at 10uM” value of the first is higher: 12.9% for the first, 10.6% for the second.

Going from `COc1ccc(-c2noc(=O)[nH]2)cc1` to `COc1ccc(Cn2c(SCC(=O)NCc3ccco3)nc3ccsc3c2=O)cc1`, the “hERG current change (%, negative = inhibition) at 10uM” value falls from -0.759% to -38.3%.

Going from `O=C(Nc1cccc([N+](=O)[O-])c1)c1cc(S(=O)(=O)N2CCOCC2)cs1` to `COc1ccc(CCNC(=O)C(=O)NCC2CCCN2S(=O)(=O)c2cccs2)cc1` (stereo not shown), the “hERG current change (%, negative = inhibition) at 10uM” value falls from 15.1% to -32.9%.

Going from `C=C(C)[C@@H]1CC=C(CN2CCC(N3CCC(C(=O)N4CCCC4)CC3)CC2)CC1` to `CCc1ccc(/C=N/n2c(C3CCCCC3)n[nH]c2=S)cc1`, the “hERG current change (%, negative = inhibition) at 10uM” value rises from -82.2% to 19.6%.

Compared with `CCOc1ccc(Nc2nc3cc(S(=O)(=O)N(CC)CC)ccc3o2)cc1`, `CCCCn1c(=NC(C)=O)c(C#N)cc2c(=O)n3cccc(C)c3nc21` is lower in “hERG current change (%, negative = inhibition) at 10uM” value: 12% for the first, -31% for the second.

Compared with `COc1cc([C@@H]2c3cc4c(cc3[C@@H](O)[C@H]3COC(=O)[C@H]23)OCO4)cc(OC)c1O[Si](C)(C)C(C)(C)C`, `COc1cc(CNn2nnnc2N)cc(Br)c1OCC(=O)NC(C)(C)C` is lower in “hERG current change (%, negative = inhibition) at 10uM” value: 17.8% for the first, -0.0211% for the second.

First: O=C1CN(/N=C/c2ccc([N+](=O)[O-])o2)C(=O)N1
Second: CCN1CCc2c(OCC(=O)N3N=C(c4cccs4)CC3c3ccc(F)cc3)cccc2C1=O (stereo not shown)
The “hERG current change (%, negative = inhibition) at 10uM” value of the first is higher: 11.8% for the first, -26% for the second.

Compared with `Cn1c(/C(C#N)=C(\O)c2ccc(Cl)s2)nc2ccccc21`, `Cc1ccc(/C([O-])=C(/C(=S)Nc2ccc(SC(F)F)cc2)[n+]2ccccc2)cc1[N+](=O)[O-]` is lower in “hERG current change (%, negative = inhibition) at 10uM” value: 16.8% for the first, -11.5% for the second.

With `CC1CC(C)(C)NC(=S)N1CCC(=O)N1c2ccccc2CC1C` (stereo not shown) the “hERG current change (%, negative = inhibition) at 10uM” value was 8.95%.
